Assays:
[1] = tested on: Wnt-beta-catenin target genes AXIN2 and NKD1; experiment: RT-qPCR of Wnt-beta-catenin target genes after anti-FZD5 IgG treatment of HPAF-II; type: cell-based, human; settings: 300 nM IgG
Experimental: Reverse transcription and quantitative real-time PCR: After indicated treatments, cells were lysed in Tri-reagent (BioShop Canada #TSS120) and RNA extracted using the manufacturer's protocol. RNA concentration was quantified with Nanodrop1000 (Thermo Scientific) and 2 micrograms of RNA per sample was DNase I treated (ThermoFisher #AM2222). DNase treated RNA was used to make cDNA with High-Capacity cDNA Reverse Transcription Kit (ThermoFisher #4368813). Real-time PCR was performed using Power SYBR Green Master Mix on the 7900HT Fast Real-Time PCR system. Primer pairs are listed below. Analysis was done using the comparative cycle threshold (CT) method (Bookout et al., 2006) with all samples normalized to PPIB (cyclophilin B) expression.

HPAF-II xenograft tumors = experiment: Histological staining (Alcian Blue) of HPAF-II xenograft tumors; type: in vivo, mouse; settings: tumors at end of treatment
Experimental: Histological staining: Tumor staining was carried out at the immuno-histopathology and tissue processing lab at the University Health Network. […] An Axio Scan slide scanner system was used to generate high resolution digital images of the whole tumor sections at 40× in brightfield mode, and the images were exported as .png files using ZEN software.

HPAF-II mouse xenografts = experiment: Subcutaneous HPAF-II xenograft mouse model; type: in vivo; settings: for tumor growth inhibition: intraperitoneal, vs human γ globulin
Experimental: Mouse xenograft studies: CB-17 Fox Chase SCID mice (6 weeks old, female) were purchased from Charles River Laboratories (St. Constant, QC, Canada). The mice were housed in a pathogen-free environment at the animal facility at the University of Toronto. The study was conducted according to the guidelines of the Canadian Council on Animal Care (CCAC) and the animal use protocols approved by the University Animal Care Committee (UACC) at the University of Toronto. The recombinant antibody, IgG-2919, was developed and purified as described above. Human γ globulin was purchased from Jackson ImmunoResearch Laboratories, Inc. (West Grove, Pa., USA), and Dulbecco's phosphate-buffered saline (DPBS, no calcium, no magnesium) was obtained from Thermo Fisher Scientific Inc. (Burlington, ON, Canada). Human γ globulin and D-PBS were used as the experimental controls in this study. HPAF-II cells were inoculated subcutaneously into the flank of the CB-17 SCID mice with 3×10^6 cells in D-PBS per mouse. Tumor volumes were measured using vernier calipers and the mice were weighed twice weekly. Tumor volume was calculated using the formula: ½ (Length×Width^2). When tumors reached approximately 200 mm^3, the mice were randomized into four groups of nine or ten mice each. […] For calculation of percentage of tumor growth inhibition (TGI), groups treated with antibody (Ab test) were compared with group treated with human γ globulin (control). TGI (%) was calculated using the formula: TGI (%)={(mean TVGcontrol−mean TVGAb test)/mean TVGcontrol}×100, where the mean TVG (tumor volume growth)=mean tumor volume at a defined study day−mean tumor volume the day of the first dosing. Statistical significance was examined by Student's t-test (two-tailed). P-values less than 0.05 were considered statistically significant.

FZD8-Fc = molecular target: T1, FZD8-Fc (Homo sapiens, UniProt Q9H461); experiment: Surface plasmon resonance analysis of IgG binding to Frizzled-Fc chimera; settings: SPR
T1 construct: segment consists of an extracellular portion of Frizzled which includes the CRD; Fc (C)
T1 sequence (Q9H461 30-151 limits assumed): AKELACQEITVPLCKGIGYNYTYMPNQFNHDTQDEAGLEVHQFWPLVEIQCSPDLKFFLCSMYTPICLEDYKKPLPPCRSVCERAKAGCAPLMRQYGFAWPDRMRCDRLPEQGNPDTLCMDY

FZD5-Fc = molecular target: T2, FZD5-Fc (Homo sapiens, UniProt Q13467); experiment: as above; settings: SPR
T2 construct: The FZD5 portion of FZD5-Fc consists of the extracellular Ala27-Pro167 segment of FZD5; Fc (C); purchased R&D Systems 1617-FZ
T2 sequence (Q13467 27-167): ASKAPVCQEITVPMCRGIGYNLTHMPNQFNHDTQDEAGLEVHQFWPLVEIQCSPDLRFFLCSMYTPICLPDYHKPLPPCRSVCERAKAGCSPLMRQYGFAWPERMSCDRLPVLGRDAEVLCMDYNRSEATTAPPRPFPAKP

B1: IgG-2919: anti-FZD5 IgG incorporating antibody variable region Fv-2919; light chain SEQ ID NO: 338, heavy chain SEQ ID NO: 340 (antibody)
heavy: EVQLVESGGGLVQPGGSLRLSCAASGFNISYSYIHWVRQAPGKGLEWVASIYSSSGSTSYADSVKGRFTISADTSKNTAYLQMNSLRAEDTAVYYCARGAIDYWGQGTLVTVSS[omitted - human IgG1 constant region]
light: DIQMTQSPSSLSASVGDRVTITCRASQSVSSAVAWYQQKPGKAPKLLIYSASSLYSGVPSRFSGSRSGTDFTLTISSLQPEDFATYYCQQWYSSGHVLITFGQGTKVEIKRTVAAPSVFIFPPSDEQLKSGTASVVCLLNNFYPREAKVQWKVDNALQSGNSQESVTEQDSKDSTYSLSSTLTLSKADYEKHKVYACEVTHQGLSSPVTKSFNRGEC
With B1 the “expression of AXIN2” value [1] was “suppresses expression”, the “expression of NKD1” value [1] was “suppresses expression” and the “mucin production (Alcian Blue staining)” value (HPAF-II xenograft tumors) was “increased mucin production”. For the same molecule, the signs of toxicity (HPAF-II mouse xenografts; 1 mg/kg or 2 mg/kg twice weekly) was “no signs of toxicity”, the tumor growth inhibition (HPAF-II mouse xenografts; 1 mg/kg twice weekly) was 46% and the tumor growth inhibition (HPAF-II mouse xenografts; 2 mg/kg twice weekly) was 73%. The “mouse body weights over course of treatment” value (HPAF-II mouse xenografts; HPAF-II xenograft mice) was “stable”, the “affinity (KD), in words” value (FZD8-Fc; FZD8) was “sub-nanomolar affinity” and the “Ka (association constant)” value (FZD8-Fc; FZD8-Fc) was 533000 M⁻¹ s⁻¹. For the same molecule, the “Kd (dissociation constant)” value (FZD8-Fc; FZD8-Fc) was 2.28e-05 s⁻¹, the “affinity (KD), in words” value (FZD5-Fc; FZD5) was “sub-nanomolar affinity” and the “Ka (association constant)” value (FZD5-Fc; FZD5-Fc) was 416000 M⁻¹ s⁻¹. The “Kd (dissociation constant)” value (FZD5-Fc; FZD5-Fc) was 8.06e-05 s⁻¹.

From patent publication US20210253718A1, “FRIZZLED5 PROTEIN-BINDING AGENTS” (Modmab Therapeutics Corporation, priority 2016, published 2021)
